# Results published in ChEMBL document CHEMBL4888484, “Replenishing the malaria drug discovery pipeline: Screening and hit evaluation of the MMV Hit Generation Library 1 (HGL1) against asexual blood stage Plasmodium falciparum ,using a nano luciferase reporter read-out” (2022).
# About 540 (0.36%) of roughly 150,000 compounds showed an effect of 50% or more. The list shows a part of the results.
# System: Plasmodium falciparum
# Assay: Primary screen in NF54 nanoGlo assay, in single point, at 2uM, 72h; a lower Z score goes with more inhibition
# Format: functional, Erythrocyte
# Conditions: timepoint 72 hour
Compound,% Inhibition,Z score
CCNC(=O)N1C[C@H](c2nc(-c3ccc(F)cc3)no2)C2(CCOCC2)C1,-7%,1.26
CC1(C)C[C@H](O)c2c(OCc3nnc(C4CC4)o3)cccc2O1,-8%,1.21
CCCCOc1ccc(-c2cc3c(N4CCN(c5ccccc5C)CC4)nccn3n2)cc1,-7%,1.07
O=C1CCCN1CC[C@H]1CCCCN1C(=O)Nc1cc(F)ccc1F,-15%,2.02
Cn1cc(Cl)cc1C(=O)Nc1ccccc1Oc1ccccc1,-5%,0.61
Cc1cccc(CNC(=O)c2cc3n(n2)CCCC3)c1,-14%,1.54
O=C(Nc1cc(Oc2ccc(F)cc2)cc(Oc2ccc(F)cc2)c1)c1cc2nc(-c3ccccc3)cc(C(F)(F)F)n2n1,-2%,0.27
CCNC(=O)c1ccc(OC(C)C)cc1,-35%,4.07
O=C(Cn1cnnn1)N1CC2C3CCC(C3)C2C1 (stereo not drawn),-2%,0.21
Cc1cc(C)cc(Nc2cc(C)n3c(=O)n(C)nc3n2)c1,-17%,1.86
COc1cnc(NC(=O)N2CCC(N3CCCC3)C2C)s1 (stereo not drawn),-8%,1.3
COc1ccc(C(=O)N2CCc3ccccc3[C@H]2C)cc1F,23%,-2.21
COc1cccc(C(=O)N2CCC[C@@]3(CCNC3)C2)c1O,-19%,1.74
FC(F)c1coc(-c2ccc(OC[C@H]3CCCCO3)cc2)n1,-11%,1.84
c1cncc(-c2n[nH]cc2CNCc2nccs2)c1,7%,-0.87
Cc1nc(N2CCC3(NC(=O)CC4CCOCC4)CCCC23)c2cnn(C)c2n1 (stereo not drawn),16%,-2.05
CCN(C[C@H](C)C#N)S(=O)(=O)c1ccc(C)cc1Br,-10%,1.1
CCOC(=O)Cc1nc(CNc2ccccc2)n[nH]1,-10%,1.68
COc1ccccc1CNC(=O)c1snc(-c2ccncc2)c1N,-20%,1.92
CCN(CC)C(=O)N1CCCN(C(=O)COc2ccccc2)CC1,-5%,0.62
c1ccc2c(c1)OCCN2Cc1noc(C2CC2)n1,-5%,0.86

Compound,% Inhibition,Z score
CCc1ccc(-c2c(C)sc(NC(=O)c3c(C)noc3C)c2C(N)=O)cc1,-7%,1.05
CCOC(=O)C[C@](C)(NC(=O)c1ccn(C)c1C)C(C)C,-10%,0.86
CCc1cc(Br)c(C)nc1N,-7%,0.95
CCN(CC)c1nc(-c2cccc(Cl)c2)nc2ncccc12,-12%,2.37
CN1CC(=O)N=C1NC(=O)Nc1cccc(Cl)c1 [FENOBAM ANHYDROUS],-3%,0.5
COC[C@@H](O)CN(Cc1c(-c2ccccc2)nn(C)c1Oc1cccc(OC)c1)C(C)C,14%,-1.8
CC12C(=O)N(c3cccc4ccccc34)C(=O)C1C1c3ccccc3C2c2ccccc21 (stereo not drawn),-2%,0.33
Cc1cn2nnc(C(=O)Nc3ccccc3CCc3ccccn3)c2c(=O)[nH]1,-2%,0.33
O=C(c1ncccc1O)N1CCC[C@@]2(CO)CN(c3cnccn3)CC[C@H]12,-8%,1.27
Cc1csc(C(=O)NC[C@]2(O)CCOC2)c1,-6%,1.17
O=C(CCCc1c[nH]c2ccccc12)N1CCc2ccccc2C1,-6%,0.54
CC1CN(C(=O)c2c(F)ccc(O)c2F)CC(C)[S+]1[O-] (stereo not drawn),4%,-0.61
Cc1cc(C(=O)N(Cc2ccccc2)C2CC2)on1,-11%,1.5
CCC(=O)N1C(C(=O)NCC2CCCO2)COC12CCC(C)CC2 (stereo not drawn),-1%,0.09
CCn1c(-c2ncccn2)nnc1N1CCC(OC(C)C)CC1,-7%,1.24
O=C(N[C@H]1CCN(Cc2ccccc2)C1)N1CCC(c2cccc(O)c2)CC1,-4%,0.81
CCOC1c2ccccc2NC(c2ccccc2)C1(C)C (stereo not drawn),8%,-1.49
O=C(N[C@H]1Cc2cncn2C1)c1ncccc1OCC(F)(F)F,-5%,0.76
CC(C)(C)OC(=O)N1CCC(CC(=O)N2CC[C@H](OCC3CC3)C2)CC1,-9%,1.38
Cc1ncnc(N2CCN(C(=O)NCc3noc(C(C)C)n3)CC2)c1C,-8%,1.01
O=C(OCc1ccccc1)c1cccc(N[C@H]2CCNC2=O)c1,-7%,0.99

Compound,% Inhibition,Z score
Clc1ccc(-c2noc(CN3CCC4(CC3)OCCO4)n2)cc1,-12%,1.05
CNC(=O)[C@@H]1C[C@@H](NC(=O)COc2ccccc2)CN1Cc1c[nH]cn1,-19%,1.69
O=C(Nc1ccccc1F)c1nnc(CNS(=O)(=O)c2ccc(F)cc2)s1,14%,-1.63
COc1ccc(-n2nc(C)c3sc(N4CCN(C(=O)c5cc(OC)cc(OC)c5)CC4)nc32)cc1,-7%,0.81
Oc1ccc(Br)c(CN2CCC(c3ccn[nH]3)CC2)c1,-1%,0.15
Cn1cncc1-c1noc(-c2ccccc2)n1,-1%,0.17
CCc1cc(N2CCc3c(c(C(N)=O)nn3C)C2)nc(N2CCCC2)n1,-1%,0.28
O=C(CCn1c(=O)[nH]c2cc3c(cc2c1=O)OCO3)N[C@H]1CCc2ccccc21,-16%,2.51
CCO[C@H]1CN(c2nnnn2-c2ccccc2)C[C@@H]1O,-3%,0.5
COc1ccc(CN2CCC[C@@](O)(CO)C2)cc1OCc1ccccc1F,0%,0.01
Cc1cnccc1C(=O)N1C[C@@H]2[C@H](C1)[C@H]2NC(=O)c1cnccc1C(F)(F)F,21%,-2.62
Cc1n[nH]c(C)c1C(=O)NCCn1ccc2ccoc2c1=O,-4%,0.68
Cn1nccc1S(=O)(=O)N1CCC(c2ccc(F)cn2)CC1,-4%,0.52
CC(C)[C@H](NC(=O)C(c1ccccc1)c1ccccc1)C(=O)NC1CCS(=O)(=O)C1 (stereo partly drawn),-8%,0.83
CC(=O)N[C@@H](C)Cc1nc(COc2ccccc2)nn1-c1ccncc1,-5%,0.91
O=C(NC/C=C/c1ccccc1)c1cnoc1-c1ccccc1,0%,-0.05
COc1cccc(CN2CCC[C@@]3(CCN(Cc4cccc(C)c4)C3)C2=O)c1,-13%,1.18
CCCC(=O)N1CCc2cn(C)c3cccc(c23)C1,-21%,2.03
Cc1nccnc1CCN1C(=O)C2CC3CCCCC3N2C1=O (stereo not drawn),-10%,1.85
O=C(c1cnc[nH]1)N1CCCN(c2ccc(-c3ccccc3)nn2)CC1,-3%,0.51
CO[C@@]12CC[C@H](OCC3CC3)C[C@@H]1N(C(=O)COc1ccc(C)cc1)CC2,-5%,0.76

Compound,% Inhibition,Z score
CC(C)Oc1ccc(C(=O)Nc2ccc(-n3nnn(CC(N)=O)c3=O)cc2)cc1,-28%,5.41
Cn1c(-c2ccccn2)nn(CC(=O)N2CCCc3ccccc32)c1=O,13%,-1.46
Cc1nc(N)sc1-c1ccn(C2CCN(C)CC2)n1,-16%,2.48
O=C(Nc1ccc(-c2ccccn2)cn1)c1cccnc1,-8%,1.19
O=C(CCc1cccc(Cl)c1)N1CC[C@H](N2CCc3ccccc3C2)C1,-5%,0.72
Cc1cc(OC2CCN(S(=O)(=O)N3CCCC3)CC2)nc(C)n1,-8%,1.54
Cc1ccc(O)c(C(=O)N2C[C@H](C(=O)O)[C@@H](c3ccc4c(c3)OCO4)C2)c1,-10%,1.26
CC1CC(n2nnc3c2CN(Cc2cccc(C(=O)O)c2)CC3)C1 (stereo not drawn),-3%,0.55
Cc1cnc(C(=O)O[C@H](c2ccccc2)c2nc(C)no2)cn1,-11%,2.16
C=CCc1ccccc1OCCN(C)Cc1ncnn1CC,-9%,1.5
O=C(Nc1nc(CC(=O)N2CCc3ccccc3C2)cs1)c1ccco1,-23%,2.97
COc1cccc(C2=NO[C@H](c3nc(-c4ccncc4)no3)C2)c1,10%,-0.96
N#Cc1c(-c2ccncc2)cc(-c2cc(CC(=O)O)cs2)nc1N,-8%,0.98
COc1ccc2c(c1)CCc1cnc(-n3ncc(C(=O)N4CC[C@H](N(C)C)C4)c3C3CC3)nc1-2,-3%,0.52
Cc1cccc(CN2CCc3nc(N4CCC(C)CC4)ncc3C2)c1,-4%,0.52
C[C@@H](c1ccccc1F)N1CCC(C(=O)Nc2ncccn2)CC1,-3%,0.41
CN(C)c1cccc(C(=O)N2CCC(N3C(=O)CNC3=O)CC2)c1,-16%,2.96
Cc1ccc(Oc2c(CN(CC(O)COCC(C)C)CC3CCCO3)c(-c3ccccc3)nn2C)cc1 (stereo not drawn),-11%,1.61
CCCC1(CNC(=O)[C@H]2CCCN(C3CCN(Cc4ccncc4)CC3)C2)CCC1,-16%,1.89
Cc1noc(C2(C)CCN(Cc3cncnc3)CC2)n1,-4%,0.69
COc1ccc(C(=O)N[C@H]2CO[C@H]3[C@@H]2OC[C@@H]3Nc2nccc(-c3ccc(N(C)C)cc3)n2)cc1,14%,-1.64
